# Experimental data taken from PMC6919601, “Identification of Plasmodium dipeptidyl aminopeptidase allosteric inhibitors by high throughput screening” (PLoS ONE, 2019).
# Several values for one entry are separate records, joined by “and”; a condition that tells them apart may be missing. Equal values may be shown once. The whole screen tested about 110,000 compounds, of which about 230 (0.21%) showed an effect of 50% or more. This is one part of the list.
# Target: DPAP1 (Plasmodium falciparum, UniProt Q8IIJ9)
# Assay: primary screen, percent inhibition; read by cleavage of a fluorogenic dipeptide substrate; higher = more effect of the substance
# Set-up: species or system P. falciparum D10 trophozoite lysates; single well
# 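Also: 30 min substrate incubation versus DMSO and 10 µM JCP410 controls.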
# Sequence of DPAP1 (Q8IIJ9 whole entry, looked up): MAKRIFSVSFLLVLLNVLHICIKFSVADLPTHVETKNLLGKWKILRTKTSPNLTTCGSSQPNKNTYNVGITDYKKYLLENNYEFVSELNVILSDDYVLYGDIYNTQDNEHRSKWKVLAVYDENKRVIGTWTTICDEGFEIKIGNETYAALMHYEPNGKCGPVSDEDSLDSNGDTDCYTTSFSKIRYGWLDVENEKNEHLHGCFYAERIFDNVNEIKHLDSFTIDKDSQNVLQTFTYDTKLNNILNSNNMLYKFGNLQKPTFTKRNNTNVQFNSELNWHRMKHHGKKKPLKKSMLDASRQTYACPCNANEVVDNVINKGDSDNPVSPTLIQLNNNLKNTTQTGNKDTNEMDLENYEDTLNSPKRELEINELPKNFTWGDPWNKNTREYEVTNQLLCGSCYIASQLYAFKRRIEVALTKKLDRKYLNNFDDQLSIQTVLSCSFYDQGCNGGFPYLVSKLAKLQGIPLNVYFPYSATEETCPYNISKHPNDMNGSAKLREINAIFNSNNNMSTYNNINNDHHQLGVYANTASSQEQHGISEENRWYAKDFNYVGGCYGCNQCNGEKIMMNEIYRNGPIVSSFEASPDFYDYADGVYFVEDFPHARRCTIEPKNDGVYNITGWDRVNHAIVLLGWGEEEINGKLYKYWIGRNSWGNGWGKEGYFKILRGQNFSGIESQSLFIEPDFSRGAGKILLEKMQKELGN
row,Compound,% Inhibition @ 10 uM
1,Cc1c(Cl)cccc1NC(=O)c1cccs1,-0.192%
2,Cc1ccc(-n2nc(C)c3c2OC(N)=C(C#N)C3c2ccc(F)cc2)cc1 (centres unmarked),-0.941%
3,O=C(O)CC12CC3CC(C1)CC(n1ncc(NCc4ccco4)c(Cl)c1=O)(C3)C2,0.166%
4,CCCC1C(=O)CC(c2ccccc2)NC1c1ccccc1 (centres unmarked),-3.35%
5,COc1ccc(CN2COc3c(cc4c5c(c(=O)oc4c3C)CCC5)C2)cc1OC,4.13%
6,CS(=O)(=O)N(CC(=O)Nc1ccc(F)cc1)c1cc(Cl)cc(Cl)c1,-1.61%
7,CCc1ccc2nc(NC3=NCN(CCOC)CN3)nc(C)c2c1,-7.33%
8,CCN(CC)CCCNC(=O)c1ccccc1,1.83%
9,Cc1nnc2c(NCCC3=CCCCC3)nc3ccc(C(=O)c4ccccc4)cc3n12,-1.59%
10,Cc1ccc(C)c(Cn2c(C)c(CNC(C)c3ccccc3)c(C(=O)O)c2C)c1 (centres unmarked),-0.23%
11,Oc1ccccc1C1=NC(c2cccs2)NC(c2ccc(F)cc2)C1 (centres unmarked),1.68%
12,Cc1cc(C)c2c(n1)SCC(=O)N2CC(=O)NCCN1CCCCCC1,1.03%
13,Cc1nc(C)c2cc3c(n[n+]2c1C)-c1cccc2cccc-3c12,-3.03%
14,Clc1cccc(N2CCN(Cc3cccc(Br)c3)CC2)c1,-0.127%
15,CCOc1cc(C#N)c(NC(=O)c2cccc(C)c2)cc1OCC,-4.41% and -1.61%
16,COc1ccc(NC(=O)CC2(CC(=O)O)CCCC2)cc1,-0.425%
17,O=C1C(c2cn(Cc3ccccc3)c3ccccc23)CC(c2ccccc2)=NN1Cc1ccccc1 (centres unmarked),3.31%
18,COC(=O)c1cc(O)nc(SCc2cccc(C)c2)n1,4.47%
19,CCOc1nc(-c2ccccc2)c2cc(Cl)ccc2n1,0.51%
20,O=C(Cn1ccnc1)c1ccc(Cl)cc1Cl,6.8%
21,O=C(O)C(CCCCN1C(=O)C2C3C=CC(C3)C2C1=O)N1C(=O)C2C3C=CC(C3)C2C1=O (centres unmarked),-2.8%
22,C=CCO/C(O)=C1\C(C)=Nc2nnnn2C1c1cc(OC)c(OC)cc1OC (centres unmarked),-7.08%
23,O=C(CC(c1ccccc1)c1cc(Cl)ccc1O)NCCCN1CCOCC1 (centres unmarked),2.46%
24,Cc1ccc(S(=O)(=O)N(C)CC(=O)NCc2ccc(F)cc2)cc1,1.92%
25,O=C(Nc1ccc(Br)c(Br)c1)c1nc[nH]n1,2.65%

row,Compound,% Inhibition @ 10 uM
1,Fc1cccc(F)c1CN1CCN(c2ccccn2)CC1,1.62%
2,CC(=O)Nc1ccc(S(=O)(=O)Nc2ccc(S(=O)(=O)N3CCCCCC3)cc2)cc1,2.67%
3,CCOCCCNC(=O)C(c1ccc(Cl)cc1)N1CCN(C(=O)c2ccco2)CC1 (centres unmarked),0.457%
4,O=P(O)(Cc1ccccc1)c1ccccc1,-0.0369%
5,COCc1cc(C)n(CC(=O)Nc2ccc(Cl)cc2Cl)c(=O)c1C#N,1.01%
6,COc1cc2c(cc1OC)C(C(=O)N1CCC(Cc3ccccc3)CC1)C(c1cccnc1)N(C)C2=O (centres unmarked),-0.503%
7,CC(C)c1nnc(NC(=O)c2cc(=O)c3cc(Cl)ccc3o2)s1,-1.47%
8,COc1cc(OC)cc(C(=O)Nc2ccc3c(c2)OCO3)c1,-12.2%
9,CC(C)CNS(=O)(=O)c1ccc(OCC(=O)Nc2cccc(F)c2)cc1,-3.65%
10,Cc1cc(Oc2nc3ccccn3c(=O)c2/C=C(\C#N)C(=O)NCCCOC(C)C)ccc1Cl,11%
11,Cc1ccc(SC(C)C(=O)N2CCCC2)cc1 (centres unmarked),-4.43%
12,CN1CCN(S(=O)(=O)c2ccc(Cl)c([N+](=O)[O-])c2)CC1,0.827%
13,Cc1cc(CN2CCCCC2)oc1C(=O)O,-0.711%
14,COc1ccc(CCNCc2c(C(=O)O)n(Cc3ccc(C)cc3)c3cc(C)ccc23)cc1OC,4.92%
15,COCCCNC(=O)CSc1nc2ccccc2c2nc(CCn3c(C)nc4ccccc43)nn12,-0.112%
16,COc1cc(-c2ccc(NS(C)(=O)=O)c(OC)c2)ccc1NS(C)(=O)=O,4.83%
17,CC1CCCC(NC(=O)Cn2c(=O)c3cccn3c3cccnc32)C1C (centres unmarked),-2.1%
18,CCOc1ccccc1NC(=O)c1cc2c(ccc3ccccc32)o1,-4.76%
19,CC(C)(C)c1cc(C(=O)NCCCn2ccnc2)cc(C(C)(C)C)c1,0.983%
20,CC1(C)CC(=O)C2=C(C1)NC(=O)CC2c1cccc(F)c1 (centres unmarked),-2.56%
21,COC(=O)c1ccc(CO/N=C(\NC(C)=O)c2nonc2NC(C)=O)cc1,2.7%
22,CCOc1ccc(N2C(=O)CC(N3CCCCC3C)C2=O)cc1 (centres unmarked),2.36%
23,COc1cccc(NC(=O)c2cccc(OC)c2)c1,-1.25%
24,Fc1ccccc1Cn1cnc2ccccc21,-2.24%
25,O=C1/C(=C\c2ccc(Br)cc2)S(=O)(=O)c2ccccc21,1.57%

row,Compound,% Inhibition @ 10 uM
1,C=CC[n+]1c(/C=C2\C=CC=CN2C)sc2ccccc21,-1.11%
2,Cc1onc(-c2ccccc2Cl)c1C(=O)N1CCN(c2ccccc2)CC1,-3.35%
3,O=C1c2ccccc2C(=O)N1CC(O)CNc1ccc(Br)cc1 (centres unmarked),-7.63%
4,OCCNC1CCCc2c1[nH]c1ccc(Br)cc21 (centres unmarked),-4.5%
5,CC1(C)CC(=O)c2c(oc3c2cc(NS(=O)(=O)c2cccs2)c2ccccc23)C1,13.3%
6,CCC(C)NC(=O)c1sc2ncn(CC(=O)NCCCOC)c(=O)c2c1C (centres unmarked),-0.458%
7,CCC(C(=O)NC1CCCCCC1)n1sc2ccccc2c1=O (centres unmarked),1.61%
8,CC(C)N1C(=O)/C(=C\c2cccc(O)c2)S/C1=N/c1ccccc1,-2.15%
9,CCSc1nnc(NC(=O)C2CCN(S(=O)(=O)c3c(C)nc(O)nc3O)CC2)s1,1.76%
10,Cc1ccc2[nH]c(C(=O)O)c(CCN)c2c1,5.54%
11,CCOCCCNC(=O)C(C)n1nc(C)c2c(C)n(-c3ccccc3)nc2c1=O (centres unmarked),1.45%
12,Cc1sc2ncnc(SCC(=O)NCCc3ccccc3)c2c1C,-11%
13,CCN1CCN(C(=O)C2CCC(C/N=c3/c(N4CCC(C)CC4)c(O)c3=O)CC2)CC1 (centres unmarked),-0.447%
14,CCN(CC)c1ccc(C=C2C(=O)NC(=O)NC2=O)c(OC)c1,-0.414%
15,CCn1c(=S)[nH]c2c(c1=O)C1(CCCC1)Cc1ccccc1-2,-0.711%
16,CCCN(CCC)CCNC(=O)Cn1ncc2c1-c1cc(C)ccc1OC2,-5.72%
17,CCSc1nc2c(c(=O)n1-c1ccc(OC)cc1)C1(CCCC1)Cc1ccccc1-2,6.49%
18,COCCn1c(CCC(=O)O)ccc1-c1ccc(OC)cc1,-2.92%
19,CCOC(=O)c1ccc2ncc(C(=O)OCC)c(NCCCOC(=O)c3ccc(Cl)cc3)c2c1,-3.97%
20,NS(=O)(=O)c1ccc(CCNC(=O)C2CCN(c3cnccn3)CC2)cc1,-6.6%
21,N#CC1=C(N)OC2=C(C(=O)CC(c3ccccc3)C2)C1c1cccc(C(F)(F)F)c1 (centres unmarked),-0.261%
22,N#Cc1cc2c(N)c(C(=O)Nc3ccccc3Oc3ccccc3)sc2nc1N,28.2%
23,CC[C@H](NC(=O)[C@H](CS(=O)(=O)Cc1ccccc1)O[Si](C(C)C)(C(C)C)C(C)C)C(=O)c1nc2ccccc2o1,-0.214%
24,CC(C)C(=O)Nc1ccc(NC(=O)Cc2ccccc2)cc1,-5.46%
25,CCOC(=O)N1CCC(/N=c2\c(O)c(O)\c2=N/C(C)CC)CC1 (centres unmarked),0.277%

row,Compound,% Inhibition @ 10 uM
1,O=C(Nc1ccc(Cc2ccc(NC(=O)C3CCCO3)cc2)cc1)C1CCCO1 (centres unmarked),0.173%
2,CCOc1ccc(C(=O)c2oc3ccccc3c2NC(=O)c2nc(S(C)(=O)=O)ncc2Cl)cc1,0.569%
3,O=C(Nc1ccc(F)cc1)c1ccc(Cl)cc1,1.63%
4,COc1cc(OC)cc(C2=N/C(=C\c3sccc3C)C(=O)O2)c1,-5.43%
5,COc1cccc(CNCc2c(C(=O)O)n(Cc3ccccc3)c3ccccc23)c1,5.09%
6,CCOC(=O)c1cc(S(=O)(=O)N2CCN(c3ncccn3)CC2)cn1C,-4.68%
7,NCC1OCCc2ccccc21 (centres unmarked),1.84%
8,CCCCNC(=S)NCc1ccc2c(c1)cc(C)n2C,1.55%
9,O=S(=O)(Nc1ccc(Cl)cc1Cl)c1ccc(F)cc1,-2.82%
10,CC(NC(=O)CCn1ccc2cc(S(=O)(=O)N3CCCC3)ccc21)c1ccccc1 (centres unmarked),-0.486%
11,CC1(C)CC(=O)C2=C(C1)N(c1ccc(Br)cn1)C(N)=C(C#N)C2c1ccsc1 (centres unmarked),1.4%
12,CCN1CCC(N2CCCCC2)CC1,-5.94%
13,CSc1ccc(CCNC(=O)C2CCCN(S(=O)(=O)N(C)C3CCCCC3)C2)cc1 (centres unmarked),-7.53%
14,O=S(=O)(NC1CCC(NS(=O)(=O)c2ccc(Cl)cc2)CC1)c1ccc(Cl)cc1 (centres unmarked),5.26%
15,Cc1ccc(CNC(=O)CCCCCNc2nc(S)nc3ccccc23)o1,0.925%
16,CC1CCCN(c2nc3c(S(=O)(=O)c4cccc(Cl)c4)nnn3c3ccsc23)C1 (centres unmarked),-4.34%
17,O=C(O)C1(c2ccccc2)CCOCC1,0.884%
18,O=C(c1ccccc1)c1cccn1CC(=O)N1CCC(Cc2ccccc2)CC1,2.76%
19,CCCCNC(=O)CSc1nc2sc(C(=O)OCC)c(C)c2c(=O)n1Cc1ccccc1,-0.284%
20,CCCNC(=O)Cn1nc(C)c2c(C)n(-c3ccc(C)cc3)nc2c1=O,-6.53%
21,COC(=O)c1cc(S(=O)(=O)NC2CCCCC2C)c[nH]1 (centres unmarked),2.81%
22,N#C/C(=C\c1c[nH]nc1-c1ccccc1)c1nc2ccccc2[nH]1,-6.06%
23,CCCc1nn(-c2ccc(F)cc2)c(O)c1/C=N/CCc1ccccc1,0.658%
